# The source gives many values for each of these; only a part stands here.
# System: PRISM panel of 845 cancer cell lines
# Assay: PRISM assay
# Format: cell-based, human
# Method: The PRISM cell set comprised 845 cell lines representing more than 45 lineages (see Supplementary Table S1 for cell line information), which largely overlapped with the Cancer Cell Line Encyclopedia; https://portals.broadinstitute.org/ccle). Cell lines were grown in RPMI without phenol red and supplemented with 10% or 20% FBS for adherent and suspended lines, respectively. Parental cell lines were stably infected with a unique 24-nucleotide DNA barcode via lentiviral transduction and blasticidin selection. After selection, barcoded cell lines were expanded and subjected to quality control (Mycoplasma contamination test, an SNP test for confirming cell line identity, and barcode ID confirmation). Approved cell lines were then pooled (20–25 cell lines per pool) based on doubling time similarity and frozen in assay-ready vials.
# RMC-6236 was added to 384-well plates at 8-point concentration with 3-fold dilutions in triplicate. These assay-ready plates were then seeded with the thawed cell line pools. Adherent cell pools were plated at 1,250 cells per well, whereas suspension and mixed adherent/suspension pools were plated at 2,000 cells per well. Treated cells were incubated for 5 days, and then lysed. Lysate plates were collapsed together prior to barcode amplification and detection.
# Each cell line's unique barcode is located in the 3′UTR of the blasticidin-resistance gene and therefore is expressed as mRNA. Total mRNA was captured using magnetic particles that recognize polyA sequences. Captured mRNA was reverse-transcribed into cDNA and then the sequence containing the unique PRISM barcode was amplified using PCR. Finally, Luminex beads that recognize the specific barcode sequences in the cell set were hybridized to the PCR products and detected using a Luminex scanner which reports the signal as a median fluorescent intensity (MFI).
# • Each detection well contained 10 control barcodes in increasing abundances as spike-in controls. For each plate, we first create a reference profile by calculating the median of the log2(MFI) values across negative control wells for each of these spiked-in barcodes. • For each well, a monotonic smooth p-spline was fitted to map the spike-in control levels to the reference profile. Next, we transform the log2(MFI) for each cell barcode using the fitted spline to allow well-to-well comparisons by correcting for amplification and detection artifacts. • Next, the separability between negative and positive control treatments was assessed. In particular, we calculated the error rate of the optimum simple threshold classifier between the control samples for each cell line and plate combination. The error rate is a measure of the overlap of the two control sets and was defined as error = (FP + FN)/n, where FP is false positives, FN is false negatives, and n is the total number of controls. A threshold was set between the distributions of positive and negative control log2(MFI) values (with everything below the threshold said to be positive and above said to be negative) such that this value is minimized. Additionally, we also calculated the dynamic range of each cell line. […] Additionally, any cell line that had less than 2 passing replicates was also omitted for the sake of reproducibility. Finally, we computed viability by normalizing with respect to the median negative control for each plate.
# For every gene with nonsilent mutations in at least four cell lines, we compared the AUC values between cells with and without those mutations using a t test. This analysis was carried out for (i) the full data set; (ii) excluding cell lines with nonsilent KRAS mutations; and (iii) excluding cell lines that have either KRAS or NRAS nonsilent mutations.
smiles,measurement,setting,value
CCn1c(-c2cc(N3CCN(C)CC3)cnc2[C@H](C)OC)c2c3cc(ccc31)-c1csc(n1)C[C@H](NC(=O)[C@H]1C[C@@H]1C)C(=O)N1CCC[C@H](N1)C(=O)OCC(C)(C)C2 [RMC-6236],RMC-6236: RevMed PRISM: AUC,TGW_AUTONOMIC_GANGLIA,0.9884
same,RMC-6236: RevMed PRISM: AUC,"THP1_HAEMATOPOIETIC_AND_LYMPHOID_TISSUE, NRAS p.G12D",0.7542
same,RMC-6236: RevMed PRISM: AUC,TM31_CENTRAL_NERVOUS_SYSTEM,1
same,RMC-6236: RevMed PRISM: AUC,TOV112D_OVARY,0.7259
same,RMC-6236: RevMed PRISM: AUC,"TT1TKB_LARGE_INTESTINE, KRAS p.G12C",0.2815
same,RMC-6236: RevMed PRISM: AUC,"TT2609C02_THYROID, NRAS p.Q61R",0.5094
same,RMC-6236: RevMed PRISM: AUC,TTC709_SOFT_TISSUE,0.849
same,RMC-6236: RevMed PRISM: AUC,TT_OESOPHAGUS,0.7933
same,RMC-6236: RevMed PRISM: AUC,"TYKNU_OVARY, NRAS p.Q61K, p.G12D",0.3531
same,RMC-6236: RevMed PRISM: AUC,U2OS_BONE,0.7282
same,RMC-6236: RevMed PRISM: AUC,U87MG_CENTRAL_NERVOUS_SYSTEM,0.8256
same,RMC-6236: RevMed PRISM: AUC,U118MG_CENTRAL_NERVOUS_SYSTEM,0.7317
same,RMC-6236: RevMed PRISM: AUC,U178_CENTRAL_NERVOUS_SYSTEM,0.775
same,RMC-6236: RevMed PRISM: AUC,U251MG_CENTRAL_NERVOUS_SYSTEM,0.8027
same,RMC-6236: RevMed PRISM: AUC,U266B1_HAEMATOPOIETIC_AND_LYMPHOID_TISSUE,0.9207
same,RMC-6236: RevMed PRISM: AUC,U343_CENTRAL_NERVOUS_SYSTEM,0.7767
same,RMC-6236: RevMed PRISM: AUC,U937_HAEMATOPOIETIC_AND_LYMPHOID_TISSUE,0.5734
same,RMC-6236: RevMed PRISM: AUC,UACC62_SKIN,0.936
same,RMC-6236: RevMed PRISM: AUC,UBLC1_URINARY_TRACT,0.5777
same,RMC-6236: RevMed PRISM: AUC,UMRC7_KIDNEY,0.8383
same,RMC-6236: RevMed PRISM: AUC,UMUC1_URINARY_TRACT,0.5688
same,RMC-6236: RevMed PRISM: AUC,UMUC5_URINARY_TRACT,0.4967
same,RMC-6236: RevMed PRISM: AUC,UMUC7_URINARY_TRACT,0.8366
same,RMC-6236: RevMed PRISM: AUC,UO31_KIDNEY,0.832
same,RMC-6236: RevMed PRISM: AUC,UPCISCC072_UPPER_AERODIGESTIVE_TRACT,0.8908
same,RMC-6236: RevMed PRISM: AUC,UPCISCC111_UPPER_AERODIGESTIVE_TRACT,0.5878
same,RMC-6236: RevMed PRISM: AUC,UPCISCC116_UPPER_AERODIGESTIVE_TRACT,0.4666
same,RMC-6236: RevMed PRISM: AUC,UW228_CENTRAL_NERVOUS_SYSTEM,0.6552
same,RMC-6236: RevMed PRISM: AUC,VAESBJ_SOFT_TISSUE,1
same,RMC-6236: RevMed PRISM: AUC,VMCUB1_URINARY_TRACT,0.5496
same,RMC-6236: RevMed PRISM: AUC,VMRCRCW_KIDNEY,0.864
same,RMC-6236: RevMed PRISM: AUC,WAOSEL_HAEMATOPOIETIC_AND_LYMPHOID_TISSUE,0.624
same,RMC-6236: RevMed PRISM: AUC,WM88_SKIN,0.8371
same,RMC-6236: RevMed PRISM: AUC,WM983B_SKIN,0.861
same,RMC-6236: RevMed PRISM: AUC,WM1799_SKIN,1
same,RMC-6236: RevMed PRISM: AUC,WM2664_SKIN,1
same,RMC-6236: RevMed PRISM: AUC,"YAPC_PANCREAS, KRAS p.G12V",0.306
same,RMC-6236: RevMed PRISM: AUC,"YD8_UPPER_AERODIGESTIVE_TRACT, KRAS p.G138V",0.775
same,RMC-6236: RevMed PRISM: AUC,YSCCC_BILIARY_TRACT,0.8018
same,RMC-6236: RevMed PRISM: AUC,"ZR751_BREAST, HRAS p.E162K",0.9247
same,RMC-6236: RevMed PRISM: AUC,cell line 8MGBA_CENTRAL_NERVOUS_SYSTEM,0.9168
same,RMC-6236: RevMed PRISM: AUC,cell line 93T449_SOFT_TISSUE,0.9525
same,RMC-6236: RevMed PRISM: AUC,"cell line 143B_BONE, KRAS p.A59T",0.4977
same,RMC-6236: RevMed PRISM: AUC,"cell line 639V_URINARY_TRACT, NRAS p.H131R",0.6064
same,RMC-6236: RevMed PRISM: AUC,"cell line 697_HAEMATOPOIETIC_AND_LYMPHOID_TISSUE, NRAS p.G12D",0.581
same,RMC-6236: RevMed PRISM: AUC,cell line 5637_URINARY_TRACT,0.5972
same,RMC-6236: RevMed PRISM: AUC,cell line 8505C_THYROID,1
same,RMC-6236: RevMed PRISM: AUC,cell line 2313287_STOMACH,0.7386
same,RMC-6236: RevMed PRISM: AUC,cell line A388_SKIN,0.4378
same,RMC-6236: RevMed PRISM: AUC,cell line A2058_SKIN,0.7602
same,RMC-6236: RevMed PRISM: AUC,cell line ABC1_LUNG,0.874
same,RMC-6236: RevMed PRISM: AUC,cell line ACCMESO1_PLEURA,0.7864
same,RMC-6236: RevMed PRISM: AUC,"cell line AGS_STOMACH, KRAS p.G12D",0.427
same,RMC-6236: RevMed PRISM: AUC,cell line ALLSIL_HAEMATOPOIETIC_AND_LYMPHOID_TISSUE,0.8931
same,RMC-6236: RevMed PRISM: AUC,"cell line AN3CA_ENDOMETRIUM, HRAS p.F82L",0.7326
same,RMC-6236: RevMed PRISM: AUC,cell line BC3C_URINARY_TRACT,0.7036
same,RMC-6236: RevMed PRISM: AUC,cell line BDCM_HAEMATOPOIETIC_AND_LYMPHOID_TISSUE,0.9284
same,RMC-6236: RevMed PRISM: AUC,cell line BECKER_CENTRAL_NERVOUS_SYSTEM,0.7563
same,RMC-6236: RevMed PRISM: AUC,cell line BHY_UPPER_AERODIGESTIVE_TRACT,0.6434
same,RMC-6236: RevMed PRISM: AUC,cell line BICR22_UPPER_AERODIGESTIVE_TRACT,0.7157
same,RMC-6236: RevMed PRISM: AUC,cell line BICR56_UPPER_AERODIGESTIVE_TRACT,0.5083
same,RMC-6236: RevMed PRISM: AUC,cell line BLUE1_HAEMATOPOIETIC_AND_LYMPHOID_TISSUE,0.888
same,RMC-6236: RevMed PRISM: AUC,cell line BT12_SOFT_TISSUE,0.5192
same,RMC-6236: RevMed PRISM: AUC,cell line BT16_SOFT_TISSUE,0.723
same,RMC-6236: RevMed PRISM: AUC,cell line BT549_BREAST,1
same,RMC-6236: RevMed PRISM: AUC,cell line BV173_HAEMATOPOIETIC_AND_LYMPHOID_TISSUE,0.5147
same,RMC-6236: RevMed PRISM: AUC,cell line C32_SKIN,0.8279
same,RMC-6236: RevMed PRISM: AUC,cell line C33A_CERVIX,0.9939
same,RMC-6236: RevMed PRISM: AUC,cell line C75_LARGE_INTESTINE,0.7717
same,RMC-6236: RevMed PRISM: AUC,"cell line C8166_HAEMATOPOIETIC_AND_LYMPHOID_TISSUE, NRAS p.Q61K",0.7009
same,RMC-6236: RevMed PRISM: AUC,cell line CADOES1_BONE,1
same,RMC-6236: RevMed PRISM: AUC,cell line CAL33_UPPER_AERODIGESTIVE_TRACT,0.4806
same,RMC-6236: RevMed PRISM: AUC,"cell line CAL62_THYROID, KRAS p.G12R",0.8976
same,RMC-6236: RevMed PRISM: AUC,cell line CAS1_CENTRAL_NERVOUS_SYSTEM,0.8864
same,RMC-6236: RevMed PRISM: AUC,cell line CASKI_CERVIX,0.6908
same,RMC-6236: RevMed PRISM: AUC,cell line CBAGPN_BONE,0.689
same,RMC-6236: RevMed PRISM: AUC,cell line CCFSTTG1_CENTRAL_NERVOUS_SYSTEM,0.7893
same,RMC-6236: RevMed PRISM: AUC,cell line CCLP1_BILIARY_TRACT,0.7167
same,RMC-6236: RevMed PRISM: AUC,cell line CHLA06ATRT_SOFT_TISSUE,0.5329
same,RMC-6236: RevMed PRISM: AUC,cell line CMLT1_HAEMATOPOIETIC_AND_LYMPHOID_TISSUE,0.7091
same,RMC-6236: RevMed PRISM: AUC,cell line COGN278_AUTONOMIC_GANGLIA,0.5921
same,RMC-6236: RevMed PRISM: AUC,"cell line COLO668_LUNG, KRAS p.G12V",0.6761
same,RMC-6236: RevMed PRISM: AUC,cell line COLO800_SKIN,0.802
same,RMC-6236: RevMed PRISM: AUC,cell line COV434_OVARY,1
same,RMC-6236: RevMed PRISM: AUC,"cell line CW2_LARGE_INTESTINE, KRAS p.P140H",0.8405
same,RMC-6236: RevMed PRISM: AUC,cell line DEL_HAEMATOPOIETIC_AND_LYMPHOID_TISSUE,0.8273
same,RMC-6236: RevMed PRISM: AUC,cell line DL_SOFT_TISSUE,0.8
same,RMC-6236: RevMed PRISM: AUC,"cell line DND41_HAEMATOPOIETIC_AND_LYMPHOID_TISSUE, NRAS p.Q61H",0.8204
same,RMC-6236: RevMed PRISM: AUC,cell line DOHH2_HAEMATOPOIETIC_AND_LYMPHOID_TISSUE,0.9076
same,RMC-6236: RevMed PRISM: AUC,"cell line DV90_LUNG, KRAS p.G13D",0.3365
same,RMC-6236: RevMed PRISM: AUC,cell line EB1_HAEMATOPOIETIC_AND_LYMPHOID_TISSUE,0.7975
same,RMC-6236: RevMed PRISM: AUC,cell line EN_ENDOMETRIUM,0.893
same,RMC-6236: RevMed PRISM: AUC,cell line G401_SOFT_TISSUE,0.9303
